# Test results published in PubChem BioAssay AID1030 (National Center for Advancing Translational Sciences (NCATS), 2008).
# The whole screen tested about 220,000 compounds, of which about 16,000 (7.3%) were called active. The shares of active, inactive and inconclusive entries below differ from those in the screen. Calls come from the whole dose curve; as a rule, active = well fitted inhibition curve with a large enough effect (not every such curve was filed as active); inconclusive = small, poorly fitted or top-dose-only effect, or another doubt; inactive = no such curve, though single readings can be large or run the other way. Potencies of inconclusive entries are left out as doubtful fits.
# Biological target: Aldehyde dehydrogenase 1A1 (Homo sapiens) (UniProt P00352)
# Assay: qHTS Assay for Inhibitors of Aldehyde Dehydrogenase 1 (ALDH1A1);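 for activity, negative = inhibition: plate controls were no enzyme wells and a reference inhibitor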
# Conditions: Purified ALDH1A1, NADH fluorescence, propionaldehyde substrate; series mostly up to 75.3 µM; activity, negative = inhibition: at the top concentration
# Potency is the fitted concentration of half-maximal effect; tags give direction and shape of the fitted curve.
# UniProt P00352, sequence (P00352 whole entry, looked up): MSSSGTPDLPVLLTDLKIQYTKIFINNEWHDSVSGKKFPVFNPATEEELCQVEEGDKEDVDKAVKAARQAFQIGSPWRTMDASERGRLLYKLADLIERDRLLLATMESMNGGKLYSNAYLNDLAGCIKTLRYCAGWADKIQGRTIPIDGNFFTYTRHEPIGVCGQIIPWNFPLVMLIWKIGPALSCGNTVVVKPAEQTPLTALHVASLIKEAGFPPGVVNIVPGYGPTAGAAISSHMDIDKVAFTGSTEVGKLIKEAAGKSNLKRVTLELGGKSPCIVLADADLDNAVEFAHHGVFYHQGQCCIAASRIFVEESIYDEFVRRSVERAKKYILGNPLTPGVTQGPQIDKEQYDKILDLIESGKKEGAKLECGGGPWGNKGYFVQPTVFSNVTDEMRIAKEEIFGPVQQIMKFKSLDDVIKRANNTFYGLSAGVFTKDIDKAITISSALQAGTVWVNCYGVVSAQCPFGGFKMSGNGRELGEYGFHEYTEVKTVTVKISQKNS
Structure (SMILES),Potency,"activity, negative = inhibition"
CC(CN1CCOCC1)OC(=O)c1cccs1 (centres undefined),"inconclusive [inhibitor, single point]",–
CCN(CC)S(=O)(=O)c1ccc(C(=O)N2CCc3ccccc32)cc1,active: 5.01 µM,–
CC(=O)C1C(=O)CC(C)(O)C(C(C)=O)C1c1ccc(N(C)C)cc1 (centres undefined),active: 3.16 µM,–
Cc1ccc(-c2cc(-c3nnc(SCC(=O)N(C)CCC#N)n3N)c3ccccc3n2)cc1,"inconclusive [inhibitor, single point]",–
Oc1csc(Cc2nc(-c3ccc4ccccc4c3)cs2)n1,"inconclusive [inhibitor, single point]",–
COC(=O)CCS(=O)(=O)c1cc(Cl)ccc1Cl,–,inactive: 9.14%
COc1ccc(N(C)C(=O)c2cnc(N3CCN(c4ncccn4)CC3)c3ccccc23)cc1,–,inactive: -7.35%
CCN(CC)c1ccc2c(c1)oc(=O)c1c(Cl)cc(=O)oc12,active: 2.24 µM,–
Cc1nc2cnc(Oc3cccc(Cl)c3)nc2n(CCc2ccccc2)c1=O,active: 6.31 µM,–
O=C(Cc1ccccc1)N1CCN(C(=O)c2ccco2)CC1,active: 20 µM,–
O=C(NCCN1CCOCC1)c1ccc(=O)n(Cc2ccc(Cl)cc2)c1,"inconclusive [inhibitor, single point]",–
O=C(CSc1nnc(-c2c[nH]c3ccccc23)o1)N1c2ccccc2CCc2ccccc21,active: 3.55 µM,–
COc1ccc(-c2cc(=NC(CC(C)C)C(=O)O)c3cc(C)ccc3o2)cc1 (centres undefined),"inconclusive [inhibitor, partial curve]",–
Cc1cc(NC(=S)Nc2ccc(C)c(Cl)c2)n[nH]1,active: 1.41 µM,–
CCC(C)c1ccc(NC(=S)NCc2ccccc2OC)cc1 (centres undefined),"inconclusive [inhibitor, partial curve]",–
CCn1c(SCC(=O)N/N=C/C=C/c2ccccc2[N+](=O)[O-])nnc1-c1ccc(Cl)cc1,active: 4.47 µM,–
COc1ccc(OC)c(NC(=O)c2c(NC(=O)CNCc3ccco3)sc3c2CCC3)c1,"inconclusive [inhibitor, single point]",–
NC(=O)N/N=C/c1ccc(-c2cccc(C(F)(F)F)c2)o1,"inconclusive [inhibitor, single point]",–
CCN(CC)S(=O)(=O)c1ccc(S(=O)(=O)N2CCCC2)cc1,–,inactive: -4.8%
CCOC(=O)c1nnc(-c2ccccc2)nc1NCc1ccc(Cl)cc1,"inconclusive [inhibitor, partial curve]",–
Cc1cc(-c2ccccc2)nc(Oc2ccc(C(C)(C)C)cc2)c1S(C)(=O)=O,–,inactive: -12.4%
O=[N+]([O-])c1cccc(/C=N/n2c(-c3cccnc3)n[nH]c2=S)c1,active: 10 µM,–
CC1(C)CC(=O)C(Sc2nnc(-c3ccc(O)cc3)n2CC2CCCO2)C(=O)C1 (centres undefined),active: 18.9 µM,–
CCOC(=O)N1CCN(c2c(NCCN3CCN(Cc4ccccc4)CC3)c(=O)c2=O)CC1,"inconclusive [inhibitor, single point]",–
CCCC(=O)Nc1cc(-c2nc3ncccc3o2)ccc1C,"inconclusive [inhibitor, single point]",–
COc1ccc(CNC(=O)C2CSCCS2)cc1 (centres undefined),"inconclusive [inhibitor, partial curve, poor fit]",–
Cc1ccc(S(=O)(=O)CCSC(=N)N)cc1,active: 0.112 µM,–

Structure (SMILES),Potency,"activity, negative = inhibition"
COc1ccc(C(CNC(=O)COc2ccc(-c3ccccc3)cc2)N2CCOCC2)cc1 (centres undefined),"inconclusive [inhibitor, partial curve]",–
Cc1cccc(N(Cc2ccccc2)C(=O)CCl)c1,active: 0.282 µM,–
CC(C)C[C@@H](CN(C)N=O)N(C[C@H](Cc1ccccc1)N(CCc1ccccc1)N=O)N=O,active: 8.91 µM,–
O=C(O)c1[nH]c2ccc(Br)cc2c1CCN1C(=O)c2cccc([N+](=O)[O-])c2C1=O,active: 31.6 µM,–
COc1ccc(Cc2nc3ccc(S(N)(=O)=O)cc3[nH]2)cc1OC,"inconclusive [inhibitor, partial curve]",–
COC(=O)Cc1ccc(NC(=S)NCCC(C)C)cc1,–,inactive: 2.6%
COc1cc2c(cc1OC)CN(C(=O)NS(=O)(=O)c1ccc(C)cc1)CC2,"inconclusive [inhibitor, partial curve]",–
C=C(C)Cn1c(Sc2nc3ccccc3[nH]2)nc2c1c(=O)[nH]c(=O)n2C,"inconclusive [inhibitor, partial curve]",–
COc1ccccc1S(=O)Cc1ccc(C(=O)O)o1 (centres undefined),"inconclusive [inhibitor, partial curve]",–
CCC(=O)N(Cc1ccc(S(N)(=O)=O)cc1)C1CC(=O)N(c2ccc(OC)cc2)C1=O (centres undefined),"inconclusive [inhibitor, single point]",–
O=C(CSc1ncn[nH]1)N1N=C2/C(=C/c3ccco3)CCCC2C1c1ccco1 (centres undefined),"inconclusive [inhibitor, single point]",–
CC1(C)CC(=O)C=C(OC(=O)c2ccc(Cl)cc2)C1,–,inactive: 6.76%
COc1cccc(-c2nc(N3CCCCC3C)c3ccccc3n2)c1O (centres undefined),–,inactive: -10.7%
CC1CCN(c2cc(N3CCN(C(=O)c4ccc(F)c(F)c4)CC3)c([N+](=O)[O-])cc2F)CC1,–,inactive: -5.81%
COc1ccc(N2CCN(C(=O)c3ccncc3)CC2)cc1,"inconclusive [inhibitor, single point]",–
Cc1cc(NS(=O)(=O)c2ccccc2)c(C)c(Cl)c1O,–,inactive: -7.88%
O=C(OCc1ccccc1)c1cccc(-c2nnn(Cc3ccccc3)n2)c1,"inconclusive [inhibitor, single point]",–
O=C(c1ccc2c(=O)n(C3CCCC3)c(=S)[nH]c2c1)N1CCc2ccccc21,"inconclusive [inhibitor, single point]",–
CC(=O)CSCc1ccccn1,active: 3.55 µM,–
CCOc1ccc(N2Nc3n[nH]c(N)c3N2)cc1,–,inactive: -2.42%
CCOC(=O)c1ccc(N2C(=O)CC(N3CCC(C(=O)OCC)CC3)C2=O)cc1 (centres undefined),active: 12.6 µM,–
Cc1ccc(NC(=S)NCc2cccs2)cc1,–,inactive: -6.7%
Cn1cccc1Cc1nnc(SCC(=O)Nc2cccc(F)c2)n1-c1ccc(F)cc1,"inconclusive [inhibitor, single point]",–
CC1CC(C)CN(CCCn2c(=S)[nH]c3ccccc3c2=O)C1 (centres undefined),–,inactive: -4.01%
COc1ccc(/C=C(\C#N)C(=O)Nc2cccnc2)cc1,–,inactive: -13.5%
COC(=O)c1ccccc1NC(=S)NC(=O)c1ccccc1C,"inconclusive [inhibitor, single point]",–
COc1ccc(-c2cc(C(=O)NC(C(=O)O)C(C)C)c(C)o2)cc1OC (centres undefined),"inconclusive [inhibitor, single point]",–

Structure (SMILES),Potency,"activity, negative = inhibition"
CSC1=N/C(=C\c2c(F)cccc2Cl)C(=O)S1,–,inactive: -9.21%
CC(c1ccccc1)N1C(=O)CC(Sc2ncccc2C(=O)O)C1=O (centres undefined),–,inactive: -7.2%
O=C(c1ccccc1F)N1CCN(c2ccc([N+](=O)[O-])c3ncccc23)CC1,"inconclusive [inhibitor, single point]",–
O=C(CSc1nnc(Cc2cccs2)n1-c1ccccc1)Nc1ccc2c(c1)OCCO2,active: 7.94 µM,–
C=CCSCC=C,–,inactive: 11.6%
CC(=O)NCCCNc1ccc([N+](=O)[O-])cc1,"inconclusive [inhibitor, single point]",–
N#CC1=C2N=C(N)c3ccccc3N2C2=C(C(=O)CCC2)C1c1cccc(Cl)c1 (centres undefined),–,inactive: 0.487%
Cc1cccc(C)c1NC(=O)CCCCCC1NC(=O)NC1C (centres undefined),–,inactive: -2.15%
NNC(=O)c1ccc(CSc2nc3ccccc3[nH]2)cc1,active: 10 µM,–
C/C(N)=C(/C#N)C(=O)COC(=O)c1cc(-c2cccc3ccccc23)nc2ccccc12,"inconclusive [inhibitor, single point]",–
CC1CCCC(C)N1C(=O)Cn1cc(/C=C2/C(=O)Nc3ccccc32)c2ccccc21 (centres undefined),–,inactive: -11.7%
O=C(O)c1ccc(C(=O)O)cc1,–,inactive: 2.34%
COc1ccc(C(=S)NCS(=O)(=O)c2ccc(C)cc2)cc1,active: 22.4 µM,–
O=C(C1CCN(S(=O)(=O)N2CCC3(CC2)OCCO3)CC1)N1CCN(Cc2ccccc2)CC1,"inconclusive [inhibitor, partial curve]",–
COc1ccc(S(=O)(=O)N2CCN(CC(=O)Nc3cc(C(F)(F)F)ccc3Cl)CC2)cc1,–,inactive: 31.4%
Cc1cc(NC(=O)c2ccccc2)ncc1NC(=O)c1ccco1,active: 11.2 µM,–
Brc1ccccc1/C=N/Nc1ccc2ccccc2n1,–,inactive: -3.96%
CCCn1c(SCC(=O)Nc2sc(C)c(C)c2C#N)nnc1C(C)C,active: 2.82 µM,–
CC(SCc1cc(=O)n2c([nH]c3ccccc32)c1C#N)C(=O)O (centres undefined),–,inactive: -14%
CCOc1ccc2nc(NC(=S)NCc3ccccc3)sc2c1,"inconclusive [inhibitor, single point]",–
COc1ccccc1-c1c(C(F)(F)F)oc2cc(OC(=O)c3cccc([N+](=O)[O-])c3C)ccc2c1=O,"inconclusive [inhibitor, full curve]",–
CCOC(=O)c1[nH]c2ccccc2c1NC(=O)CC(C)(C)C,"inconclusive [inhibitor, single point]",–
NNC(=O)c1ccc(Cn2cc(Br)c(N)n2)cc1,"inconclusive [inhibitor, partial curve]",–
COc1ccccc1NC(=O)C/C(C)=N/NC(=O)C12CC3CC(CC(C3)C1)C2,"inconclusive [inhibitor, partial curve]",–
CCN(C(=O)CSc1nnnn1-c1ccccc1)c1c(N)n(Cc2ccccc2)c(=O)[nH]c1=O,"inconclusive [inhibitor, single point]",–
